These are yes or no findings as the source states them, for the method shown. Binding seen in cells or lysates may run through a third protein. Some binding calls cover weakened binding; strength is not graded here. Where a sequence is shown, tags or fusion partners need not be part of it.

Protein sequences, listed by entry. Tags and fused reporters are not part of them.
UniProt P16794: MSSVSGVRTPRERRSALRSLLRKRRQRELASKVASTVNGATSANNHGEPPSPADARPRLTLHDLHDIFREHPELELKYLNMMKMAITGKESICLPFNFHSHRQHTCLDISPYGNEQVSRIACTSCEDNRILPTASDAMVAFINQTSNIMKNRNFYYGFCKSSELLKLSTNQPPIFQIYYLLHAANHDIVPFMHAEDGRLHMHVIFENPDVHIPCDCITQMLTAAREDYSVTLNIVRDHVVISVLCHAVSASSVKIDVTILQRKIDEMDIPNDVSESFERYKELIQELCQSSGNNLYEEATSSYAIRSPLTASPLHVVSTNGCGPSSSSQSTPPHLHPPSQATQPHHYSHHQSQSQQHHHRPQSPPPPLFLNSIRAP

What all share (assay): co-IP
In experiment [1] the target is T1, EBV BFLF2, Flag-tagged (pcDNA-BFLF2-Flag) (Epstein-Barr virus (EBV), strain B95-8) (UniProt P0CK47).
T1 sequence: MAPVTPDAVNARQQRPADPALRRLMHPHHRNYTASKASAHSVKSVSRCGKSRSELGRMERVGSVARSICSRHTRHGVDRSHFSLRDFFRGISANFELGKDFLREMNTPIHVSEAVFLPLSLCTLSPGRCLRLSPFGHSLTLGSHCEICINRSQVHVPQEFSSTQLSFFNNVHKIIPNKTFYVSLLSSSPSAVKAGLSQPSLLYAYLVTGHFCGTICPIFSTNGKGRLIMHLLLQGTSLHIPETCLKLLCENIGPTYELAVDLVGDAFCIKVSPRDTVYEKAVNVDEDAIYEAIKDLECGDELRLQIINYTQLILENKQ

Experiment [2] concerns the target HCMV pUL53, Flag-tagged (pcDNA-UL53-Flag) (human cytomegalovirus (HCMV)) (UniProt P16794).
Experiment [3] has as its target T2, VZV Orf27, Flag-tagged (pcDNA-Orf27-Flag) (varicella zoster virus (VZV), strain Oka) (UniProt Q4JQU8).
T2 sequence: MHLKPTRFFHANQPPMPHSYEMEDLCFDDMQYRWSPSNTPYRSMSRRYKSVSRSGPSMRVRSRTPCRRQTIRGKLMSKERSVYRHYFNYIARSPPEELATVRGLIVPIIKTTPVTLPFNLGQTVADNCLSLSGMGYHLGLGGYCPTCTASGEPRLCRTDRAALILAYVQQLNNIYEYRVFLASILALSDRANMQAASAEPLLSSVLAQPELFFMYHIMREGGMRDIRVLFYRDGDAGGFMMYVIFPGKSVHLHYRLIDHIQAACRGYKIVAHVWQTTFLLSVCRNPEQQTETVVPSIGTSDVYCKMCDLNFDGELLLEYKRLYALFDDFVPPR

B1: EBV BFRF1, HA-tagged (pcDNA-BFRF1-HA) (protein, UniProt P03185 1-336)
chain: MASPEERLLDELNNVIVSFLCDSGSLEVERCSGAHVFSRGSSQPLCTVKLRHGQIYHLEFVYKFLAFKLKNCNYPSSPVFVISNNGLATTLRCFLHEPSGLRSGQSGPCLGLSTDVDLPKNSIIMLGQDDFIKFKSPLVFPAELDLLKSMVVCRAYITEHRTTMQFLVFQAANAQKASRVMDMISDMSQQLSRSGQVEDTGARVTGGGGPRPGVTHSGCLGDSHVRGRGGWDLDNFSEAETEDEASYAPWRDKDSWSESEAAPWKKELVRHPIRRHRTRETRRMRGSHSRVEHVPPETRETVVGGAWRYSWRATPYLARVLAVTAVALLLMFLRWT
B1: the binding result in experiment [1] is recorded as “binds”; in experiment [2], “no binding”; in experiment [3], “no binding”.

The record behind these values is PMC7150769.
